Measured values taken from article PMC4336329 (PLoS ONE, 2015).
About 2,200 (0.71%) of roughly 310,000 compounds showed an effect of 50% or more. The effect is printed as a negative number. Some of the results follow.

target: human ether-à-go-go-related gene (hERG) potassium channel (human, UniProt Q12809); test: primary screen, population patch clamp on CHO cells stably expressing hERG
Sequence (Q12809 whole entry, looked up): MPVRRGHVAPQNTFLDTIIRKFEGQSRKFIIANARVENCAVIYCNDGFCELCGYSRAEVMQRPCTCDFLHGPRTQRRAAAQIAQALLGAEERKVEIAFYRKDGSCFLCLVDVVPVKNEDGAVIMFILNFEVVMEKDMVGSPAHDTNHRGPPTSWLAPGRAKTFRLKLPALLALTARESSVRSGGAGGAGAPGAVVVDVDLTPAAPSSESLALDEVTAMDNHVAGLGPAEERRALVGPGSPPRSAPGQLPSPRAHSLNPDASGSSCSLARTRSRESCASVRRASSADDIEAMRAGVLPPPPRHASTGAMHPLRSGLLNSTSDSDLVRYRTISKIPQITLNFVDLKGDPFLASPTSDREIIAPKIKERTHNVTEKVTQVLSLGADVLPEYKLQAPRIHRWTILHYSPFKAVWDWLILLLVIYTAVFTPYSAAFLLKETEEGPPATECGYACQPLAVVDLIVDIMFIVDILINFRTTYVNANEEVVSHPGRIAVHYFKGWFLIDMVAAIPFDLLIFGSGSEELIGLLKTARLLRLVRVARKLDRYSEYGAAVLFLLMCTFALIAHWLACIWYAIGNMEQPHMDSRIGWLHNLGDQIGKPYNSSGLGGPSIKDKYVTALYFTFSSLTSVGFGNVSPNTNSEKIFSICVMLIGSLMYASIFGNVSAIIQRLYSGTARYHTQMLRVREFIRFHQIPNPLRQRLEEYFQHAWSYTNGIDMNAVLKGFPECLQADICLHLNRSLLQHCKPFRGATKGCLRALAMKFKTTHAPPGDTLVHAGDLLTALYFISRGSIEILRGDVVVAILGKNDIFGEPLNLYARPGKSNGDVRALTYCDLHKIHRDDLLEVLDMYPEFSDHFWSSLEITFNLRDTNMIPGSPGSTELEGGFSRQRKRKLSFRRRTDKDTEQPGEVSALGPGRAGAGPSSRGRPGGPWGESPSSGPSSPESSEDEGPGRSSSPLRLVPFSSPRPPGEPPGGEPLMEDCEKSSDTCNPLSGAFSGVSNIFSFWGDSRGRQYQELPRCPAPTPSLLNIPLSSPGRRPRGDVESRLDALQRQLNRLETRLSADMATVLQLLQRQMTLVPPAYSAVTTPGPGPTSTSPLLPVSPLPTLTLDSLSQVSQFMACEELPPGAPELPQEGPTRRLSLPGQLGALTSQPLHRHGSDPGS

Compound	hERG current change (%, negative = inhibition) at 1uM [%]
CN(C)c1ccc(/C=N/NC(=O)C(O)(c2ccccc2)c2ccccc2)o1	-5.86
Cc1ccc(NC(=O)c2sc3nc(C)nc(N4CCN(c5ccccn5)CC4)c3c2C)c(C)c1	-3.08
CCC(=O)NC1(C(F)(F)F)C(=O)Nc2c1c(=O)[nH]c(=O)n2CC(C)C (stereo not drawn)	1.05
CCOC(=O)C(Sc1ncc(C#N)c(N)n1)C(C)C (stereo not drawn)	5.46
CC(C)c1ccc(OCC(O)Cn2cnc3ccccc32)cc1 (stereo not drawn)	8.82
Cc1ccc(S(=O)(=O)NCCC(=O)NC(C)CCc2ccccc2)cc1 (stereo not drawn)	-10.7
O=C(OCc1c(F)cccc1Cl)c1cnccn1	13
O=C(Nc1ccc2ccccc2c1)c1cccc(F)c1	11.4
O=C(CSc1nc2c([nH]c3ccccc32)c(=O)n1-c1cccc(Cl)c1)N1CCOCC1	15.2
O=C(CNS(=O)(=O)c1ccc(Br)s1)N1CCCC1	17.7
O=S(=O)(c1cc(F)ccc1F)N1CCN(C2CCCCC2)CC1	4.35
CC(=O)c1ccc(NC(=S)N2CCN(CCN3C(=O)c4cccc5cccc(c45)C3=O)CC2)cc1	14.6
Cc1ccc(S(=O)(=O)N2CCOCC2)cc1C(=O)N(Cc1nnc(-c2ccccc2Cl)o1)C1CC1	0.237
COC(=O)c1ccc(NC(=O)CSc2nnnn2C2CCCCC2)cc1	12.5
c1ccc(CNC2=NCCC2)nc1	17.1
O=C(O)C(=O)O.c1ccc(CN2CCC(N3CCC(N4CCCCCC4)CC3)CC2)cc1	14.4
Cc1onc(-c2c(F)cccc2Cl)c1C(=O)N[C@@H]1C(=O)N2C(C(=O)[O-])C(C)(C)S[C@H]12.[Na+] (stereo partly drawn)	-1.91
O=[N+]([O-])c1cc(S(=O)(=O)N2CCCC2)ccc1N/N=C/c1cccs1	11.9
Cc1ccc(C)c(N2CN(CCC3=CCCCC3)CNC2=S)c1	-1.65

Compound	hERG current change (%, negative = inhibition) at 1uM [%]
Cc1c(C(=O)N2CCCC2)sc(NC(=O)c2ccccc2)c1C#N	12.2
CC1(C)CN(c2ccc(Br)cc2Br)C1=O	16.2
O=C(CSc1nnnn1Cc1ccccc1)Nc1ccccc1	11.7
CCC1CSC(Nc2ccc(C(=O)/C=C/c3ccc(Oc4ccccc4)cc3)cc2)=N1 (stereo not drawn)	8.77
N#Cc1c(Nc2ccccc2)c(/C=N/N=C/c2ccccc2)c[nH]c1=O	9.64
C/C(COc1ccccc1)=N\NC(=O)c1nnn(-c2nonc2N)c1CSc1ccccc1	5.72
Oc1ccc(C=Nc2ccccc2-c2nc3ccccc3[nH]2)cc1	11.4
CC1=NNC(=O)C1Oc1ccccc1 (stereo not drawn)	0.965
COC(=O)C(NC(=O)CCc1nnc2ccc(N3CCC(C)CC3)nn12)C(C)C (stereo not drawn)	13
O=C(Nc1ccccn1)c1ccco1	13
COC(=O)c1sc(N2C(=O)C(=O)/C(=C(/O)c3ccc(C)cc3)C2c2ccco2)nc1C (stereo not drawn)	9.86
O=C(NCc1ccncc1)C(=O)NCC1OCCN1S(=O)(=O)c1ccc(Cl)cc1 (stereo not drawn)	10.2
O=C(O)c1ccccc1NS(=O)(=O)c1cccc2nsnc12	8.63
CCCOC(=O)c1ccc(NC(=O)/C=C/c2cccs2)cc1	7.88
Cc1ccc(-n2nc(C(=O)NCc3ccc(C)o3)c3c4ccccc4n(C)c3c2=O)cc1	2.41
CCC(CC)C(=O)N(CCc1ccc(OC)cc1)Cc1nc2ccccc2c(=O)[nH]1	0.442
COc1ccccc1NC(=O)c1cn(CCC#N)nc1-c1ccc(F)cc1	20.4
CC(=O)Cc1nsc(Nc2ccc(F)cc2)n1	8.2
COc1ccc(C)cc1N(CC(=O)Nc1cccc(N(C)S(C)(=O)=O)c1)S(C)(=O)=O	-5.24

Compound	hERG current change (%, negative = inhibition) at 1uM [%]
O=C(CCN1C(=O)COc2ccccc21)NCCCN1CCN(c2ccc(F)cc2)CC1	-43.1
COc1ccc(/C=N/NC(=O)C2C3CCCCC32C)cc1OC (stereo not drawn)	13.4
Cc1ccc(C)c(S(=O)(=O)c2c(C)cc(C)nc2Cl)c1	8.25
Cc1ccc(C2CC(c3ccc(Cl)cc3)n3nc(N)nc3N2)cc1 (stereo not drawn)	3.47
Cl.N=c1n(CCN2CCCC2)c2ccccc2n1CC(O)c1ccco1 (stereo not drawn)	-3.97
O=C(Nc1cccnc1)c1cc(-c2ccco2)on1	13.9
O=C1NC2(CCCCCCC2)C(=O)N1Cc1ccc(F)cc1	13.2
Cc1cc(C)nc(NC(=O)CSc2nccc(C)n2)n1	6.75
O=C1C(C=Nc2ccccc2)=C(O)c2ccccc21	-1.47
COC(=O)c1ccc2c(=O)n(NC(C)=O)c(=S)[nH]c2c1	9.7
C/C(=N\NC(=O)c1nn(C)cc1Br)c1cccc(NC(=O)C2CCCC2)c1	3.53
O=C(C1CCCN(Cc2ccc(F)cc2)C1)N1CCCCC1.O=C(O)C(=O)O (stereo not drawn)	9.49
C=CCc1ccc(OCCCOc2ccc(C)c(C)c2)c(OC)c1	-4.54
Cc1nnsc1C(=O)NNS(=O)(=O)c1ccccc1	10.2
O=C(NCCc1c[nH]c2ccccc12)C(=O)Nc1ccccc1	6.9
O=C(CS(=O)(=O)Cc1ccccc1)Nc1ccc(S(=O)(=O)N2CCOCC2)cc1	13.2
Oc1[nH]c2c(Cl)cc(Cl)cc2c1N=NC(=S)NCC1CCCO1 (stereo not drawn)	10.8
COc1cc(NC(=S)N2CCN(c3ccccn3)CC2)c(OC)cc1Cl	7.07
CCN(CC)CCN(C(=O)Cn1nnc(-c2ccc(OC)c(OC)c2)n1)C(C(=O)NC1CCCC1)c1ccc(F)cc1 (stereo not drawn)	-11.7
